Laboratory results: the supplement of paper PMC7125110
± gives the standard error. Variants at the floor of the assay are shown more often than the library holds them.

B1: glmS ribozyme (parent)
chain: AUAAAAGCGCCAGAACUACAGAAAUGUAGUUGACGAGGAGGAGGUUUAUCGAAUUUUCGGCGGAUGCCUCCAAA

Legend:
Conditions in all cases: with glucosamine-6-phosphate
[1] = variants of: B1; assay: self-cleavage kobs at 40 uM GlcN6P; higher = faster cleavage; RNA array
Procedure, shortened: (§1)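 kobs was derived by fitting per-tile medians to one- or two-exponential decays after normalising signals to baseline and to non-cleaving reference variants. Those signals came from barcoded ribozyme variants transcribed in situ by E. coli RNA polymerase on sequenced MiSeq chips, followed through a hybridised Cy3 probe at 37 °C and imaged over ~14 h. Glucosamine-6-phosphate (40 μM to 10 mM) in HEPES/KCl/Mg(OAc)2 buffer was flowed in. Weighted Michaelis–Menten fits across concentrations then gave kcat and KM.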

[2] = variants of: B1; assay: self-cleavage kobs at 640 uM GlcN6P; higher = faster cleavage; RNA array
Procedure, shortened: as §1

[3] = variants of: B1; assay: self-cleavage kobs at 10000 uM GlcN6P; higher = faster cleavage; RNA array
Procedure, shortened: as §1

[4] = variants of: B1; assay: self-cleavage kobs at 160 uM GlcN6P; higher = faster cleavage; RNA array
Procedure, shortened: as §1

[5] = variants of: B1; assay: self-cleavage kobs at 2500 uM GlcN6P; higher = faster cleavage; RNA array
Procedure, shortened: as §1

## A15U U31C C50G
[1]
  self-cleavage kobs at 40 uM GlcN6P: 5.26e-05 ± 2.5e-05 s⁻¹

## A15U U49C
[1]
  self-cleavage kobs at 40 uM GlcN6P: < 1e-05 s⁻¹
[2]
  self-cleavage kobs at 640 uM GlcN6P: < 1e-05 s⁻¹
[3]
  self-cleavage kobs at 10000 uM GlcN6P: < 1e-05 s⁻¹

## A15U U49G
[1]
  self-cleavage kobs at 40 uM GlcN6P: < 1e-05 s⁻¹

## A15U U65G
[1]
  self-cleavage kobs at 40 uM GlcN6P: 3.19e-05 ± 1.1e-05 s⁻¹
[2]
  self-cleavage kobs at 640 uM GlcN6P: 0.00036 ± 4.5e-05 s⁻¹
[4]
  self-cleavage kobs at 160 uM GlcN6P: 6.21e-05 ± 1e-05 s⁻¹

## C16A A64U
[1]
  self-cleavage kobs at 40 uM GlcN6P: < 1e-05 s⁻¹
[4]
  self-cleavage kobs at 160 uM GlcN6P: < 1e-05 s⁻¹

## C16A G29U U31C
[1]
  self-cleavage kobs at 40 uM GlcN6P: 3.38e-05 ± 1.4e-05 s⁻¹
[3]
  self-cleavage kobs at 10000 uM GlcN6P: 0.000493 ± 0.00013 s⁻¹

## C16A G44A C67A
[1]
  self-cleavage kobs at 40 uM GlcN6P: < 1e-05 s⁻¹

## C16A G59C U65G
[1]
  self-cleavage kobs at 40 uM GlcN6P: < 1e-05 s⁻¹
[3]
  self-cleavage kobs at 10000 uM GlcN6P: < 1e-05 s⁻¹

## C16A G60A G62U
[1]
  self-cleavage kobs at 40 uM GlcN6P: < 1e-05 s⁻¹
[2]
  self-cleavage kobs at 640 uM GlcN6P: < 1e-05 s⁻¹
[5]
  self-cleavage kobs at 2500 uM GlcN6P: < 1e-05 s⁻¹
[3]
  self-cleavage kobs at 10000 uM GlcN6P: < 1e-05 s⁻¹

## C16A G62U
[1]
  self-cleavage kobs at 40 uM GlcN6P: < 1e-05 s⁻¹
[2]
  self-cleavage kobs at 640 uM GlcN6P: < 1e-05 s⁻¹
[4]
  self-cleavage kobs at 160 uM GlcN6P: < 1e-05 s⁻¹

## C16G A36C C61U
[1]
  self-cleavage kobs at 40 uM GlcN6P: < 1e-05 s⁻¹
[2]
  self-cleavage kobs at 640 uM GlcN6P: < 1e-05 s⁻¹
[4]
  self-cleavage kobs at 160 uM GlcN6P: < 1e-05 s⁻¹
[3]
  self-cleavage kobs at 10000 uM GlcN6P: < 1e-05 s⁻¹

## C16G A48C
[1]
  self-cleavage kobs at 40 uM GlcN6P: < 1e-05 s⁻¹
[2]
  self-cleavage kobs at 640 uM GlcN6P: < 1e-05 s⁻¹
[4]
  self-cleavage kobs at 160 uM GlcN6P: < 1e-05 s⁻¹

## C16G C34G G60U C61G U65A C67G
[1]
  self-cleavage kobs at 40 uM GlcN6P: 8.29e-05 ± 1.8e-05 s⁻¹
[5]
  self-cleavage kobs at 2500 uM GlcN6P: 0.000198 ± 6.9e-05 s⁻¹

## C16G C70U
[1]
  self-cleavage kobs at 40 uM GlcN6P: 0.000111 ± 1.4e-05 s⁻¹
[2]
  self-cleavage kobs at 640 uM GlcN6P: 0.000455 ± 8e-05 s⁻¹
[4]
  self-cleavage kobs at 160 uM GlcN6P: 0.000359 ± 6.2e-05 s⁻¹
[5]
  self-cleavage kobs at 2500 uM GlcN6P: 0.000561 ± 9e-05 s⁻¹
[3]
  self-cleavage kobs at 10000 uM GlcN6P: 0.00521 ± 0.001 s⁻¹

## C16G G32A G44C C58U
[1]
  self-cleavage kobs at 40 uM GlcN6P: < 1e-05 s⁻¹
[3]
  self-cleavage kobs at 10000 uM GlcN6P: < 1e-05 s⁻¹

## C16G G40A A64C
[1]
  self-cleavage kobs at 40 uM GlcN6P: < 1e-05 s⁻¹
[3]
  self-cleavage kobs at 10000 uM GlcN6P: < 1e-05 s⁻¹

## C16G G40U U65C
[1]
  self-cleavage kobs at 40 uM GlcN6P: < 1e-05 s⁻¹
[2]
  self-cleavage kobs at 640 uM GlcN6P: < 1e-05 s⁻¹

## C16G G44C C71U
[1]
  self-cleavage kobs at 40 uM GlcN6P: < 1e-05 s⁻¹
[3]
  self-cleavage kobs at 10000 uM GlcN6P: < 1e-05 s⁻¹

## C16G U30A U65G
[1]
  self-cleavage kobs at 40 uM GlcN6P: < 1e-05 s⁻¹

## C16G U30G C58G
[1]
  self-cleavage kobs at 40 uM GlcN6P: < 1e-05 s⁻¹

## C16G U31G
[1]
  self-cleavage kobs at 40 uM GlcN6P: 4.37e-05 ± 1.7e-05 s⁻¹
[2]
  self-cleavage kobs at 640 uM GlcN6P: 0.000186 ± 4.5e-05 s⁻¹
[4]
  self-cleavage kobs at 160 uM GlcN6P: 4.98e-05 ± 1.6e-05 s⁻¹
[5]
  self-cleavage kobs at 2500 uM GlcN6P: 0.000366 ± 0.0001 s⁻¹

## C16G U45A
[1]
  self-cleavage kobs at 40 uM GlcN6P: 0.000245 ± 3.1e-05 s⁻¹

## C16G U49G
[1]
  self-cleavage kobs at 40 uM GlcN6P: < 1e-05 s⁻¹

## C16G U55G
[1]
  self-cleavage kobs at 40 uM GlcN6P: 0.000147 ± 2.3e-05 s⁻¹

## C16U A39C
[1]
  self-cleavage kobs at 40 uM GlcN6P: 0.000107 ± 1.4e-05 s⁻¹
[5]
  self-cleavage kobs at 2500 uM GlcN6P: 0.00222 ± 0.00082 s⁻¹
[3]
  self-cleavage kobs at 10000 uM GlcN6P: 0.00545 ± 0.0006 s⁻¹

## C16U A42G U57C
[1]
  self-cleavage kobs at 40 uM GlcN6P: < 1e-05 s⁻¹

## C16U A64U
[1]
  self-cleavage kobs at 40 uM GlcN6P: < 1e-05 s⁻¹

## C16U C34A U57A U65G
[1]
  self-cleavage kobs at 40 uM GlcN6P: < 1e-05 s⁻¹

## C16U C34U G38A A42U G51U U56G
[1]
  self-cleavage kobs at 40 uM GlcN6P: < 1e-05 s⁻¹
[5]
  self-cleavage kobs at 2500 uM GlcN6P: < 1e-05 s⁻¹
